Reference: patent US20230159603A1 (XILIO DEVELOPMENT, published 2023)

B1: AK665 (Fc fusion)
chain 1: [human IgG1 Fc with changes left out here]GGSPGKIDACKRGDVTVKPSHVILLGSTVNITCSLKPRQGCFHYSRRNKLILYKFDRRINFHHGHSLNSQVTGLPLGTTLFVCKLACINSDEIQICGAEIFVGVAPEQPQNLSCIQKGEQGTVACTWERGRDTHLYTEYTLQLSGPKNLTWQKQCKDIYCDYLDFGINLTPESPESNFTAKVTAVNSLGSSSSLPSTFTFLDIVRPLPPWDIRIKFQKASVSRSTLYWRDEGLVLLNRLRYRPSNSRLWNMVNVTKAKGRHDLLDLKPFTEYEFQISSKLHLYKGSWSDWSESLRAQTPEE
chain 2: DKTHTCPPCPAPELLGGPSVFLFPPKPKDTLMISRTPEVTCVVVDVSHEDPEVKFNWYVDGVEVHNAKTKPREEQYASTYRVVSVLTVLHQDWLNGKEYKCKVSNKALPAPIEKTISKAKGQPREPQVYTLPPCRDELTKNQVSLWCLVKGFYPSDIAVEWESNGQPENNYKTTPPVLDSDGSFFLYSKLTVDKSRWQQGNVFSCSVMHEALHNHYTQKSLSLSPGGGSGGSGGSVPLSLYSGPIWELKKDVYVVELDWYPDAPGEMVVLTCDTPEEDGITWTLDQSSEVLGSGKTLTIQVKEFGDAGQYTCHKGGEVLSHSLLLLHKKEDGIWSTDILKDQKEPKNKTFLRCEAKNYSGRFTCWWLTTISTDLTFSVKSSRGSSDPQGVTCGAATLSAERVRGDNKEYEYSVECQEDSACPAAEESLPIEVMVDAVHKLKYENYTSSFFIRDIIKPDPPKNLQLKPLKNSRQVEVSWEYPDTWSTPHSYFSLTFSVQVQGKDNTEGRVFTDKTSATVICRKNASISVRAQDRYYSSSWSEWASVPCSGGGGSGGGGSGGGGSRNLPVATPDPGMFPCLHHSQNLLRAVSNMLQKARQTLEFYPCTSEEIDHEDITKDKTSTVEACLPLELTKNESCLNSRETSFITNGSCLASRKTSFMMALCLSSIYEDLKMYQVEFKTMNAKLLMDPKRQIFLDQNMLAVIDELMQALNFNSETVPQKSSLEEPDFYKTKIKLCILLHAFRIRAVTIDRVMSYLNAS
B2: AK666 (Fc fusion)
chain 1: [human IgG1 Fc with changes left out here]PGGSGPKIDACKRGDVTVKPSHVILLGSTVNITCSLKPRQGCFHYSRRNKLILYKFDRRINFHHGHSLNSQVTGLPLGTTLFVCKLACINSDEIQICGAEIFVGVAPEQPQNLSCIQKGEQGTVACTWERGRDTHLYTEYTLQLSGPKNLTWQKQCKDIYCDYLDFGINLTPESPESNFTAKVTAVNSLGSSSSLPSTFTFLDIVRPLPPWDIRIKFQKASVSRSTLYWRDEGLVLLNRLRYRPSNSRLWNMVNVTKAKGRHDLLDLKPFTEYEFQISSKLHLYKGSWSDWSESLRAQTPEE
chain 2: DKTHTCPPCPAPELLGGPSVFLFPPKPKDTLMISRTPEVTCVVVDVSHEDPEVKFNWYVDGVEVHNAKTKPREEQYASTYRVVSVLTVLHQDWLNGKEYKCKVSNKALPAPIEKTISKAKGQPREPQVYTLPPCRDELTKNQVSLWCLVKGFYPSDIAVEWESNGQPENNYKTTPPVLDSDGSFFLYSKLTVDKSRWQQGNVFSCSVMHEALHNHYTQKSLSLSPGGGSGGSVPLSLYSGPIWELKKDVYVVELDWYPDAPGEMVVLTCDTPEEDGITWTLDQSSEVLGSGKTLTIQVKEFGDAGQYTCHKGGEVLSHSLLLLHKKEDGIWSTDILKDQKEPKNKTFLRCEAKNYSGRFTCWWLTTISTDLTFSVKSSRGSSDPQGVTCGAATLSAERVRGDNKEYEYSVECQEDSACPAAEESLPIEVMVDAVHKLKYENYTSSFFIRDIIKPDPPKNLQLKPLKNSRQVEVSWEYPDTWSTPHSYFSLTFSVQVQGKDNTEGRVFTDKTSATVICRKNASISVRAQDRYYSSSWSEWASVPCSGGGGSGGGGSGGGGSRNLPVATPDPGMFPCLHHSQNLLRAVSNMLQKARQTLEFYPCTSEEIDHEDITKDKTSTVEACLPLELTKNESCLNSRETSFITNGSCLASRKTSFMMALCLSSIYEDLKMYQVEFKTMNAKLLMDPKRQIFLDQNMLAVIDELMQALNFNSETVPQKSSLEEPDFYKTKIKLCILLHAFRIRAVTIDRVMSYLNAS
B3: AK667 (Fc fusion)
chain 1: [human IgG1 Fc with changes left out here]PGGSGPKIDACKRGDVTVKPSHVILLGSTVNITCSLKPRQGCFHYSRRNKLILYKFDRRINFHHGHSLNSQVTGLPLGTTLFVCKLACINSDEIQICGAEIFVGVAPEQPQNLSCIQKGEQGTVACTWERGRDTHLYTEYTLQLSGPKNLTWQKQCKDIYCDYLDFGINLTPESPESNFTAKVTAVNSLGSSSSLPSTFTFLDIVRPLPPWDIRIKFQKASVSRSTLYWRDEGLVLLNRLRYRPSNSRLWNMVNVTKAKGRHDLLDLKPFTEYEFQISSKLHLYKGSWSDWSESLRAQTPEE
chain 2: DKTHTCPPCPAPELLGGPSVFLFPPKPKDTLMISRTPEVTCVVVDVSHEDPEVKFNWYVDGVEVHNAKTKPREEQYASTYRVVSVLTVLHQDWLNGKEYKCKVSNKALPAPIEKTISKAKGQPREPQVYTLPPCRDELTKNQVSLWCLVKGFYPSDIAVEWESNGQPENNYKTTPPVLDSDGSFFLYSKLTVDKSRWQQGNVFSCSVMHEALHNHYTQKSLSLSPGGGSGGSMPYDLYHPSGPIWELKKDVYVVELDWYPDAPGEMVVLTCDTPEEDGITWTLDQSSEVLGSGKTLTIQVKEFGDAGQYTCHKGGEVLSHSLLLLHKKEDGIWSTDILKDQKEPKNKTFLRCEAKNYSGRFTCWWLTTISTDLTFSVKSSRGSSDPQGVTCGAATLSAERVRGDNKEYEYSVECQEDSACPAAEESLPIEVMVDAVHKLKYENYTSSFFIRDIIKPDPPKNLQLKPLKNSRQVEVSWEYPDTWSTPHSYFSLTFSVQVQGKDNTEGRVFTDKTSATVICRKNASISVRAQDRYYSSSWSEWASVPCSGGGGSGGGGSGGGGSRNLPVATPDPGMFPCLHHSQNLLRAVSNMLQKARQTLEFYPCTSEEIDHEDITKDKTSTVEACLPLELTKNESCLNSRETSFITNGSCLASRKTSFMMALCLSSIYEDLKMYQVEFKTMNAKLLMDPKRQIFLDQNMLAVIDELMQALNFNSETVPQKSSLEEPDFYKTKIKLCILLHAFRIRAVTIDRVMSYLNAS
B4: AK668 (Fc fusion)
chain 1: [human IgG1 Fc with changes left out here]GGSPGKIDACKRGDVTVKPSHVILLGSTVNITCSLKPRQGCFHYSRRNKLILYKFDRRINFHHGHSLNSQVTGLPLGTTLFVCKLACINSDEIQICGAEIFVGVAPEQPQNLSCIQKGEQGTVACTWERGRDTHLYTEYTLQLSGPKNLTWQKQCKDIYCDYLDFGINLTPESPESNFTAKVTAVNSLGSSSSLPSTFTFLDIVRPLPPWDIRIKFQKASVSRSTLYWRDEGLVLLNRLRYRPSNSRLWNMVNVTKAKGRHDLLDLKPFTEYEFQISSKLHLYKGSWSDWSESLRAQTPEE
chain 2: DKTHTCPPCPAPELLGGPSVFLFPPKPKDTLMISRTPEVTCVVVDVSHEDPEVKFNWYVDGVEVHNAKTKPREEQYASTYRVVSVLTVLHQDWLNGKEYKCKVSNKALPAPIEKTISKAKGQPREPQVYTLPPCRDELTKNQVSLWCLVKGFYPSDIAVEWESNGQPENNYKTTPPVLDSDGSFFLYSKLTVDKSRWQQGNVFSCSVMHEALHNHYTQKSLSLSPGGGSGGSGGSMPYDLYHPSGPIWELKKDVYVVELDWYPDAPGEMVVLTCDTPEEDGITWTLDQSSEVLGSGKTLTIQVKEFGDAGQYTCHKGGEVLSHSLLLLHKKEDGIWSTDILKDQKEPKNKTFLRCEAKNYSGRFTCWWLTTISTDLTFSVKSSRGSSDPQGVTCGAATLSAERVRGDNKEYEYSVECQEDSACPAAEESLPIEVMVDAVHKLKYENYTSSFFIRDIIKPDPPKNLQLKPLKNSRQVEVSWEYPDTWSTPHSYFSLTFSVQVQGKDNTEGRVFTDKTSATVICRKNASISVRAQDRYYSSSWSEWASVPCSGGGGSGGGGSGGGGSRNLPVATPDPGMFPCLHHSQNLLRAVSNMLQKARQTLEFYPCTSEEIDHEDITKDKTSTVEACLPLELTKNESCLNSRETSFITNGSCLASRKTSFMMALCLSSIYEDLKMYQVEFKTMNAKLLMDPKRQIFLDQNMLAVIDELMQALNFNSETVPQKSSLEEPDFYKTKIKLCILLHAFRIRAVTIDRVMSYLNAS
B5: AK669 (Fc fusion)
chain 1: [human IgG1 Fc with changes left out here]PGGSGPKIDACKRGDVTVKPSHVILLGSTVNITCSLKPRQGCFHYSRRNKLILYKFDRRINFHHGHSLNSQVTGLPLGTTLFVCKLACINSDEIQICGAEIFVGVAPEQPQNLSCIQKGEQGTVACTWERGRDTHLYTEYTLQLSGPKNLTWQKQCKDIYCDYLDFGINLTPESPESNFTAKVTAVNSLGSSSSLPSTFTFLDIVRPLPPWDIRIKFQKASVSRSTLYWRDEGLVLLNRLRYRPSNSRLWNMVNVTKAKGRHDLLDLKPFTEYEFQISSKLHLYKGSWSDWSESLRAQTPEE
chain 2: DKTHTCPPCPAPELLGGPSVFLFPPKPKDTLMISRTPEVTCVVVDVSHEDPEVKFNWYVDGVEVHNAKTKPREEQYASTYRVVSVLTVLHQDWLNGKEYKCKVSNKALPAPIEKTISKAKGQPREPQVYTLPPCRDELTKNQVSLWCLVKGFYPSDIAVEWESNGQPENNYKTTPPVLDSDGSFFLYSKLTVDKSRWQQGNVFSCSVMHEALHNHYTQKSLSLSPGGGSGGSISSGLLSGRSSGPIWELKKDVYVVELDWYPDAPGEMVVLTCDTPEEDGITWTLDQSSEVLGSGKTLTIQVKEFGDAGQYTCHKGGEVLSHSLLLLHKKEDGIWSTDILKDQKEPKNKTFLRCEAKNYSGRFTCWWLTTISTDLTFSVKSSRGSSDPQGVTCGAATLSAERVRGDNKEYEYSVECQEDSACPAAEESLPIEVMVDAVHKLKYENYTSSFFIRDIIKPDPPKNLQLKPLKNSRQVEVSWEYPDTWSTPHSYFSLTFSVQVQGKDNTEGRVFTDKTSATVICRKNASISVRAQDRYYSSSWSEWASVPCSGGGGSGGGGSGGGGSRNLPVATPDPGMFPCLHHSQNLLRAVSNMLQKARQTLEFYPCTSEEIDHEDITKDKTSTVEACLPLELTKNESCLNSRETSFITNGSCLASRKTSFMMALCLSSIYEDLKMYQVEFKTMNAKLLMDPKRQIFLDQNMLAVIDELMQALNFNSETVPQKSSLEEPDFYKTKIKLCILLHAFRIRAVTIDRVMSYLNAS

Biological target: human IL-12 receptor (IL-12Rβ1 and IL-12Rβ2) on HEK-Blue IL-12 reporter cells (human, UniProt P42701 24-662; Q99665 24-862)
Test: cell-based or functional assay

| Binder | Aklusion (Run 1) [fold] | Aklusion (Run 2) [fold] | Average Aklusion [fold] | Aklusion (Run 1, lot AK666-01A) [fold] | Aklusion (Run 1, lot AK666-02A) [fold] | Aklusion (Run 2, lot AK666-01A) [fold] | Aklusion (Run 2, lot AK666-02A) [fold] | Average Aklusion (lot AK666-01A) [fold] | Average Aklusion (lot AK666-02A) [fold] |
| --- | --- | --- | --- | --- | --- | --- | --- | --- | --- |
| B1 | 52.9 | 60.5 | 56.7 |  |  |  |  |  |  |
| B2 |  |  |  | 72 | 70 | 81.5 | 62.4 | 76.8 | 66.2 |
| B3 | 126 | 82.6 | 104 |  |  |  |  |  |  |
| B4 | 56.1 | 55.6 | 55.8 |  |  |  |  |  |  |
| B5 | 36.3 | 48.4 | 42.4 |  |  |  |  |  |  |
